Reference: article PMC4336329 (PLoS ONE, 2015)
About 14,000 (4.5%) of roughly 310,000 compounds showed an effect of 50% or more. The effect is printed as a negative number. The list shows a part of the results.

These compounds were tested against human ether-à-go-go-related gene (hERG) potassium channel (human, UniProt Q12809) (assay: primary screen, population patch clamp on CHO cells stably expressing hERG).
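Note: peak tail current of the secondary pulse compared with the same well before compound.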

human ether-à-go-go-related gene (hERG) potassium channel, sequence (Q12809 whole entry, looked up): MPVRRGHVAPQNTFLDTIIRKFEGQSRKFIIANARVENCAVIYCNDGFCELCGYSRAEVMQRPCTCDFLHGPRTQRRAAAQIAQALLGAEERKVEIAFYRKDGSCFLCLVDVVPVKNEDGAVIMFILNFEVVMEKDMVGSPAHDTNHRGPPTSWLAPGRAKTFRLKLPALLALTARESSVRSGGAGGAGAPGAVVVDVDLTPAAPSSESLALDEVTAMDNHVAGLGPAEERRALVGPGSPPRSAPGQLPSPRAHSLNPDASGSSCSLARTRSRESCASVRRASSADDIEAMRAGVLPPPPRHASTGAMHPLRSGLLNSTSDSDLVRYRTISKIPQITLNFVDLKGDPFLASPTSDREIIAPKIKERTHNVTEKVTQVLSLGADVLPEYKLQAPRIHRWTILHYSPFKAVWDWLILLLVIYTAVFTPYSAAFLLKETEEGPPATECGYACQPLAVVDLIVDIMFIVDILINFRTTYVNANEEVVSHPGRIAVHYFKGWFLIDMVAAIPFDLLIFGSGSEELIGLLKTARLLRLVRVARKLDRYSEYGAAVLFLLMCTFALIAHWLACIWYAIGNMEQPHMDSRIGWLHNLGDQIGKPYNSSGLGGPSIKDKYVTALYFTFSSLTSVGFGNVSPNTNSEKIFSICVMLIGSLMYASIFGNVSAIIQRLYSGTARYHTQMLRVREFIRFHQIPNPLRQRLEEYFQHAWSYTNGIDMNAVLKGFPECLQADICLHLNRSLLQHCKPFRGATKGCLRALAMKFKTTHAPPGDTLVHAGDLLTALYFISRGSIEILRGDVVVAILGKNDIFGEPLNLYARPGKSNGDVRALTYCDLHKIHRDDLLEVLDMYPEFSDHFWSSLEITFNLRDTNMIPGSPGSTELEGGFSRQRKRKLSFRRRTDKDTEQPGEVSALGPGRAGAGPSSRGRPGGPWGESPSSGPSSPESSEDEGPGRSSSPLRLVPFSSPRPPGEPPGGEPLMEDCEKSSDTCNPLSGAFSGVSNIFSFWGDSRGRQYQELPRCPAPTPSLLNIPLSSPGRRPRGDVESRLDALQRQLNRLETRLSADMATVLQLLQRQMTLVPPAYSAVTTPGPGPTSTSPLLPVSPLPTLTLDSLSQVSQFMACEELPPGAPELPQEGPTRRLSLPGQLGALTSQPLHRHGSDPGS

| Compound | hERG current change (%, negative = inhibition) at 10uM [%] |
| --- | --- |
| Cc1cc(C(=O)NCc2ccco2)no1 | 10.2 |
| COC(=O)c1sc2nc(SCc3ccccc3C)n(N)c(=O)c2c1C | 10.7 |
| O=S(=O)(c1cccc(-c2nnc(SC(F)F)n2-c2ccccc2)c1)N1CCCCC1 | -30.3 |
| Cc1cc(-c2nc(C)c(-c3nnc(SCC(=O)Nc4cc(Cl)cc(Cl)c4)n3C)s2)no1 | 5.93 |
| O=C(Nc1ccc(S(=O)(=O)N2CCCC2)cc1)c1c(F)cccc1F | 7.76 |
| CCOC(=O)c1c(CN2CCOCC2)n(C)c2cc(Br)c(O)c(CN(C)C)c12 | -27.4 |
| Cn1c(O)c(N=Nc2ccc(S(=O)(=O)N3CCOCC3)cc2)c(=O)n(C)c1=O | 10.8 |
| O=C(CCc1ccccc1)Nc1cc(Cl)ccc1O | -3.5 |
| Cc1cccc(CC2CC(=O)N(c3ccccc3)C2=O)c1 (stereo not shown) | -1.28 |
| COc1ccc(NC(=O)CS(=O)CC(=O)Nc2ccc(F)cc2F)cc1 (stereo not shown) | -24.7 |
| O=C(c1cc2cc(Br)ccc2oc1=O)N1CCCC1 | -16.2 |
| Cc1onc(C(=O)N2CCN(Cc3ccccc3)CC2)c1[N+](=O)[O-] | -10.7 |
| O=C(NCCCN1CCOCC1)C1CCN(S(=O)(=O)c2c(Cl)cccc2Cl)CC1 | -9.04 |
| O=C(NC1CC1)c1cc2c(F)cccc2s1 | -42.1 |
| O=C(O)c1cnc2[nH]c3ccccc3n2c1=O | 0.816 |
| Fc1ccc(CN2CCN(C(c3ccccc3)c3ccccc3)CC2)cc1.O=C(O)C(=O)O | 15 |
| CC(C)NC(=O)N1c2ccccc2Sc2ccccc21 | 13.2 |
| CCOC(=O)c1ccc(NC(=O)c2ccccc2[N+](=O)[O-])cc1 | -8.35 |
| CN1CCc2c(sc(N)c2C(=O)O)C1 | 20.8 |
| CC(C)(C)NC(=O)C(c1ccncc1)N(Cc1ccc(F)cc1)C(=O)c1ccc(-c2ccccc2)[nH]1 (stereo not shown) | 12.7 |

| Compound | hERG current change (%, negative = inhibition) at 10uM [%] |
| --- | --- |
| CCCN1CCC(NC(=O)CCc2nnc(Cc3cc(OC)ccc3OC)o2)CC1 | 20.6 |
| Cc1sc2nc3c4ccccc4c(NCc4ccco4)nn3c(=O)c2c1C | -56.6 |
| OCCC1CN(Cc2cnc(-c3ccccc3)s2)CCN1C1CCCCC1 (stereo not shown) | -51.4 |
| Cc1ccc(/C=C2\C(=N)N3N=C(CC(=O)N4CCOCC4)SC3=NC2=O)o1 | 12.2 |
| CC(C)OC(=O)CSc1nnc(CNc2nc(-c3ccccc3)cs2)n1C | -20.4 |
| O=C(NCN1CCN(c2ccccc2F)CC1)c1cccnc1 | -5.7 |
| N/C(Cc1cccs1)=N\OC(=O)COc1ccc(Cl)cc1Cl | -14.8 |
| Cc1nc2sc3c(c2c(=O)n1NC(=O)CCBr)CCCC3 | 5.16 |
| O=C(Cn1nc(Cl)nc1Cl)c1ccccc1 | -2.26 |
| O=C(NNC1=Nc2cccc3cccc1c23)c1ccccc1Br | 5.44 |
| CC12CCC(=O)N1C(C(=O)Nc1nc(-c3ccc(F)c(F)c3)cs1)CS2 (stereo not shown) | 22.7 |
| O=c1c2ccccc2[nH]c(=S)n1C1CCCCC1 | 24.4 |
| CCOC(=O)c1cc(C)sc1/N=C/C1C(=O)CC(C)(C)CC1=O | -1.26 |
| CCCOc1ccc(C(=O)CCN2CCCCC2)cc1.Cl | -31.6 |
| O=S(=O)(NC1=NCCC1)c1cccs1 | 3.23 |
| S=c1nc(C2COc3ccccc3O2)[nH][nH]1 (stereo not shown) | 27.7 |
| CCN(CC(=O)NCc1ccc(Cl)cc1)Cc1cc(=O)n2ccsc2n1 | -42.2 |
| CCOC(=O)C(C)n1cnc2c(nnn2Cc2ccc(C)cc2)c1=O (stereo not shown) | 1.29 |
| O=C(O)c1cc(-c2ccc(Cl)cc2)n(-c2ccc(F)cc2)n1 | 3.09 |
| CCCn1c(C(C)NC(=O)c2ccccc2)n[nH]c1=S (stereo not shown) | 12.7 |

| Compound | hERG current change (%, negative = inhibition) at 10uM [%] |
| --- | --- |
| Cc1c([N+](=O)[O-])cc(C(=O)Nc2ccc(NC(=O)c3ccco3)cc2)cc1[N+](=O)[O-] | 17.2 |
| COc1ccc(C(=O)NCC(=O)N2CCCCC2)cc1OC | 36.2 |
| Nc1nc(NCC(=O)O)nc(N2CCCCCC2)c1[N+](=O)[O-] | 5.52 |
| CC1(C)CC(C(N)=S)CCO1 (stereo not shown) | 26.5 |
| COc1cccc(NC(=O)CN(C)C(=O)c2cc3c(s2)CCC3)c1 | 17.8 |
| CCc1nonc1NC(=O)c1oc2ccc(F)cc2c1C | 15.6 |
| COc1ccc(/C=C(\C#N)c2nc3ccc(C)cc3[nH]2)cc1Oc1ccc(C(F)(F)F)cc1[N+](=O)[O-] | 15.4 |
| Cc1cccc(C)c1NC(=O)/C(C#N)=C/c1ccc(-c2ccc(C(=O)O)cc2)o1 | -3.38 |
| Br.O=C(Cn1c(NCCCO)nc2ccccc21)c1ccc(Br)cc1 | -24.7 |
| CC(=O)Nc1ccc(NC(=O)C(NS(=O)(=O)c2cccc3nsnc23)C(C)C)cc1 (stereo not shown) | 31.5 |
| CCCCCCCn1c(C)nnc1-c1cnn(C)c1N | 8.24 |
| COc1cc(-c2nc3cccc(C)n3c2NCC2CCCO2)ccc1O (stereo not shown) | -51.4 |
| COc1ccc(-c2c(N)n[nH]c2C)cc1OC | 6.13 |
| C=CCOc1ccc(C(=O)n2cc(C(=O)OC)c3ccccc32)cc1 | 9.62 |
| CC1CC(=O)Nc2ccccc2N1C(=O)Cn1cnc2ccccc2c1=O (stereo not shown) | 11.5 |
| CCN(CC)C(=O)c1sc(NC(=O)c2ccc(C)c([N+](=O)[O-])c2)c(C#N)c1C | 15.4 |
| COC(=O)c1ccc(CSc2ncnc3c2nnn3-c2ccc(F)cc2)o1 | 1.31 |
| CN(C)c1ccc(C2OC(=O)C(C)(C)C(=O)C2(C)C)cc1 (stereo not shown) | 16.4 |
